# Reference: the supplement of paper PMC8728848
# Some of the results follow.
# B1: PNA (Arachis hypogaea), P02872 (protein)
# chain: MKPFCVFLTFFLLLAASSKKVDSAETVSFNFNSFSEGNPAINFQGDVTVLSNGNIQLTNLNKVNSVGRVLYAMPVRIWSSATGNVASFLTSFSFEMKDIKDYDPADGIIFFIAPEDTQIPAGSIGGGTLGVSDTKGAGHFVGVEFDTYSNSEYNDPPTDHVGIDVNSVDSVKTVPWNSVSGAVVKVTVIYDSSTKTLSVAVTNDNGDITTIAQVVDLKAKLPERVKFGFSASGSLGGRQIHLIRSWSFTSTLITTTRRSIDNNEKKIMNMASA
# Tests used:
# Assay in all cases: glycan array binding signal (z-score within array); higher = stronger binding
# Settings in all cases: glycan notation: IUPAC condensed, linker removed
# [1] = molecular target: 3dGal(b1-3)[Fuc(a1-4)]Glc
# In short: (§1)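 The binding signal is a Z-score computed within each array. Data were drawn from 3228 arrays in the Consortium for Functional Glycomics database, restricted to those with a known protein sequence. Scores were averaged over arrays of the same protein sequence at different concentrations or buffers, and over linkers, and negative values can be taken as non-binding.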
# 3dGal(b1-4)Glc = molecular target: 3dGal(b1-4)Glc
# In short: as §1
# [2] = molecular target: 4d8dNeu5Ac(a2-3)Gal(b1-4)Glc
# In short: as §1
# [3] = molecular target: 4dNeu5Ac(a2-3)Gal(b1-4)Glc
# In short: as §1
# [4] = molecular target: 7dNeu5Ac(a2-3)Gal(b1-4)Glc
# In short: as §1
# [5] = molecular target: 8dNeu5Ac(a2-3)Gal(b1-4)Glc
# In short: as §1
# [6] = molecular target: 9dNeu5Ac(a2-3)Gal(b1-4)Glc
# In short: as §1
# [7] = molecular target: Ara(a1-5)Ara(a1-5)Ara(a1-5)Ara(a1-5)Ara(a1-5)Ara
# In short: as §1
# [8] = molecular target: Ara(a1-5)Ara(a1-5)Ara(a1-5)Ara(a1-5)Ara(a1-5)Ara(a1-5)Ara
# In short: as §1
# Fuc(a1-2)Gal = molecular target: Fuc(a1-2)Gal
# In short: as §1
# Fuc(a1-2)Gal(b1-3)GalNAc = molecular target: Fuc(a1-2)Gal(b1-3)GalNAc
# In short: as §1
# [9] = molecular target: Fuc(a1-2)Gal(b1-3)GalNAc(a1-3)[Fuc(a1-2)]Gal(b1-4)Glc
# In short: as §1
# [10] = molecular target: Fuc(a1-2)Gal(b1-3)GalNAc(a1-3)[Fuc(a1-2)]Gal(b1-4)GlcNAc
# In short: as §1
# [11] = molecular target: Fuc(a1-2)Gal(b1-3)GalNAc(b1-3)Gal
# In short: as §1
# [12] = molecular target: Fuc(a1-2)Gal(b1-3)GalNAc(b1-3)Gal(a1-4)Gal(b1-4)Glc
# In short: as §1
# [13] = molecular target: Fuc(a1-2)Gal(b1-3)GalNAc(b1-4)[Neu5Ac(a2-3)]Gal(b1-4)Glc
# In short: as §1
# Fuc(a1-2)Gal(b1-3)GlcNAc = molecular target: Fuc(a1-2)Gal(b1-3)GlcNAc
# In short: as §1
# [14] = molecular target: Fuc(a1-2)Gal(b1-3)GlcNAc(b1-2)Man(a1-3)[Fuc(a1-2)Gal(b1-3)GlcNAc(b1-2)Man(a1-6)]Man(b1-4)GlcNAc(b1-4)GlcNAc
# In short: as §1
# [15] = molecular target: Fuc(a1-2)Gal(b1-3)GlcNAc(b1-2)Man(a1-3)[Fuc(a1-2)Gal(b1-3)GlcNAc(b1-2)Man(a1-6)]Man(b1-4)GlcNAc(b1-4)[Fuc(a1-6)]GlcNAc
# In short: as §1
# [16] = molecular target: Fuc(a1-2)Gal(b1-3)GlcNAc(b1-3)Gal(b1-4)Glc
# In short: as §1
# [17] = molecular target: Fuc(a1-2)Gal(b1-3)GlcNAc(b1-3)GalNAc
# In short: as §1
# [18] = molecular target: Fuc(a1-2)Gal(b1-3)GlcNAc(b1-3)[Fuc(a1-2)Gal(b1-3)GlcNAc(b1-6)]GalNAc
# In short: as §1
# [19] = molecular target: Fuc(a1-2)Gal(b1-3)GlcNAc(b1-3)[Fuc(a1-3)[Gal(b1-4)]GlcNAc(b1-6)]Gal(b1-4)Glc
# In short: as §1
# [20] = molecular target: Fuc(a1-2)Gal(b1-3)GlcNAc(b1-3)[Gal(b1-4)GlcNAc(b1-6)]Gal(b1-4)Glc
# In short: as §1
# [21] = molecular target: Fuc(a1-2)Gal(b1-3)GlcNAc(b1-3)[Neu5Ac(a2-6)Gal(b1-4)GlcNAc(b1-6)]Gal(b1-4)Glc
# In short: as §1
# [22] = molecular target: Fuc(a1-2)Gal(b1-3)GlcNAc6S
# In short: as §1
# [23] = molecular target: Fuc(a1-2)Gal(b1-3)[Fuc(a1-4)]GlcNAc
# In short: as §1
# [24] = molecular target: Fuc(a1-2)Gal(b1-3)[Fuc(a1-4)]GlcNAc(b1-2)Man(a1-3)[Fuc(a1-2)Gal(b1-3)[Fuc(a1-4)]GlcNAc(b1-2)Man(a1-3)]Man(b1-4)GlcNAc(b1-4)GlcNAc
# In short: as §1
# [25] = molecular target: Fuc(a1-2)Gal(b1-3)[Fuc(a1-4)]GlcNAc(b1-2)Man(a1-3)[Fuc(a1-2)Gal(b1-3)[Fuc(a1-4)]GlcNAc(b1-2)Man(a1-6)]Man(b1-4)GlcNAc(b1-4)GlcNAc
# In short: as §1
# [26] = molecular target: Fuc(a1-2)Gal(b1-3)[Fuc(a1-4)]GlcNAc(b1-2)Man(a1-3)[Fuc(a1-2)Gal(b1-3)[Fuc(a1-4)]GlcNAc(b1-2)Man(a1-6)]Man(b1-4)GlcNAc(b1-4)[Fuc(a1-6)]GlcNAc(b1-4)[Fuc(a1-6)]GlcNAc
# In short: as §1
binder,measurement,setting,value
B1,glycan array binding signal (z-score),[1],-0.195
same,glycan array binding signal (z-score),3dGal(b1-4)Glc,-0.195
same,glycan array binding signal (z-score),[2],-0.195
same,glycan array binding signal (z-score),[3],-0.195
same,glycan array binding signal (z-score),[4],-0.195
same,glycan array binding signal (z-score),[5],-0.195
same,glycan array binding signal (z-score),[6],-0.195
same,glycan array binding signal (z-score),[7],-0.195
same,glycan array binding signal (z-score),[8],-0.195
same,glycan array binding signal (z-score),Fuc(a1-2)Gal,-0.186
same,glycan array binding signal (z-score),Fuc(a1-2)Gal(b1-3)GalNAc,-0.165
same,glycan array binding signal (z-score),[9],-0.156
same,glycan array binding signal (z-score),[10],-0.084
same,glycan array binding signal (z-score),[11],-0.152
same,glycan array binding signal (z-score),[12],-0.132
same,glycan array binding signal (z-score),[13],-0.153
same,glycan array binding signal (z-score),Fuc(a1-2)Gal(b1-3)GlcNAc,-0.181
same,glycan array binding signal (z-score),[14],-0.048
same,glycan array binding signal (z-score),[15],-0.204
same,glycan array binding signal (z-score),[16],-0.204
same,glycan array binding signal (z-score),[17],-0.26
same,glycan array binding signal (z-score),[18],-0.106
same,glycan array binding signal (z-score),[19],-0.174
same,glycan array binding signal (z-score),[20],-0.21
same,glycan array binding signal (z-score),[21],-0.266
same,glycan array binding signal (z-score),[22],-0.342
same,glycan array binding signal (z-score),[23],-0.155
same,glycan array binding signal (z-score),[24],-0.041
same,glycan array binding signal (z-score),[25],-0.129
same,glycan array binding signal (z-score),[26],-0.236
